Measured values published in PubChem BioAssay AID1346428 (National Center for Advancing Translational Sciences (NCATS), 2018).
In all, about 48,000 compounds went through this assay and about 1,200 (2.5%) were called active. Another 2% or so got no clear call; they are omitted.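 Rule for the calls: active = activation of at least 60% and not above a set upper limit (about 1 call in 100 departs from these limits); inconclusive = activation of 40% to 60%, or above that upper limit; inactive = activation under 40%.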 The list shows a part of the results.

What follows are compounds tested against Probable G-protein coupled receptor 32 (Homo sapiens) (UniProt O75388) (assay: qHTS for Agonists of Human Resolvin D1 Receptor DRV1). Conditions: CHO-K1 GPR32 beta-arrestin PathHunter luminescence, 90 min; at 76.9 µM; active compounds read high; zero percent set by DMSO-only wells.
Chain of UniProt O75388 (O75388 whole entry, looked up): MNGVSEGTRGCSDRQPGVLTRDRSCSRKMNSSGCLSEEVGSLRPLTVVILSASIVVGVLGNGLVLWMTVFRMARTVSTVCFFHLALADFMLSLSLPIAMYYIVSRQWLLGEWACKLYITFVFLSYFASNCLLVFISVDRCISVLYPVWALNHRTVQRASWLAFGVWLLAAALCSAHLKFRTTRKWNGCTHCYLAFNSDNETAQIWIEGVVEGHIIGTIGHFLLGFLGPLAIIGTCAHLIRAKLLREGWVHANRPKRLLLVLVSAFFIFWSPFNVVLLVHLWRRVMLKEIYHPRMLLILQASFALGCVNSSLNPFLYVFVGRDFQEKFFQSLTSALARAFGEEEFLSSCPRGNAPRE
In short: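 Beta-arrestin recruitment read-out: luminescence from complemented beta-Gal in CHO-K1 GPR32 PathHunter cells, measured 1 h after detection reagent at ambient temperature following 90 min compound exposure at 37 °C; DMSO served as basal (EC0) control.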
Note: 0% is about no effect.

activation, active:
COc1cc2[nH]c(=O)n(CCCCCC(=O)N3CCN(c4cccc(C(F)(F)F)c4)CC3)c(=O)c2cc1OC 63.1%
CCc1ccc(CNCc2c(C(=O)O)n(Cc3cccc(F)c3)c3cc(OC)ccc23)cc1 109%
CCOC(=O)c1cccc(Nc2c3c(nc4ccccc24)CCC3)c1 77.8%
CCOC(=O)c1noc2ncn(CC(=O)Nc3ccc(C)c(F)c3)c(=O)c12 76%

activation, inactive:
COc1ccc(OCCn2cc(C(=O)C3CCCCC3)c3ccccc32)cc1 -24.2%
O=C(Nc1cccc(Br)c1)N1CCC(CN2CCCCC2)CC1 3.27%
Cc1ccc(NC(=O)CSc2nc3ncccc3[nH]2)cc1F 0.321%
O=C(NCc1ccc(Cl)cc1)C(=O)Nc1ccc(Br)cc1 -0.341%
CCc1cccc(NC(=O)Cn2c(=O)n(Cc3ccccc3)c(=O)c3c2c2cc(OC)ccc2n3C)c1 -0.644%
COC(=O)c1c(NC(=O)CCCOc2ccc(C(C)(C)C)cc2)sc2c1CCC(C)C2 (stereo not given) 0.607%
CCc1ccccc1NC(=O)Cn1c(-c2nonc2N)nc2ccccc21 -8.9%
O=C(NCCc1csc(-c2ccc(Cl)cc2)n1)c1cccs1 33.2%
CCN(C(=O)Cn1nc(Cc2cccnc2)c2ccccc2c1=O)c1ccccc1F -24.2%
O=S(=O)(Nc1ccc2oc3c(c2c1)CCCC3)c1cc(Cl)ccc1Cl 46.8%
COc1ccc(NC(=O)/C(C#N)=C/c2ccc(OCc3cc(=O)n4nc(C)sc4n3)cc2)cc1 -0.255%
CC1CCN(C(=O)CSc2nnc(-c3ccccc3Cl)o2)CC1 -4.05%
Cc1ccc(S(=O)(=O)NCCc2cn3c(C)csc3n2)cc1 -6.07%
Cc1cccc(NC(=O)C2CCN(c3nnc(-n4c(C)ccc4C)s3)CC2)c1C -20.4%
COc1ccc(-c2nnc(C3CCN(C(=O)c4ccccc4F)CC3)o2)cc1 -13.5%
Cc1ccc2nc(-c3cc(NC(=O)c4ccc5c(c4)OCCO5)ccc3Cl)oc2c1 -16.6%
COc1ccc(NC(=O)CCNS(=O)(=O)c2cccc3nsnc23)cc1 -24.8%
COc1ccc(C2Sc3ccccc3NC3=C2C(=O)c2ccccc23)c(OC)c1OC (stereo not given) -69%
CCCCN(CC)CCNC(=O)c1cc2c(=O)oc3ccc(C)cc3c2s1 0.333%
CCn1c(=O)c2cc(C(=O)NCCc3cc(OC)ccc3OC)sc2c2ccccc21 7.51%
O=C(NCc1cccc(F)c1)c1ccc(-n2cnc3cccnc32)cc1 -7.22%
Cc1cccc(Cn2cc(C(=O)Nc3ccc(F)c(C(F)(F)F)c3)ccc2=O)c1 17.6%
CCc1ccc2oc(-c3ccc(NC(=O)c4ccc(OC)c(Br)c4)cc3)nc2c1 -0.417%
Cc1ccc(-n2c(C)nc3c(cnn3-c3ccccc3C)c2=O)cc1F 9.15%
Cc1ccc(-c2cc(C(F)(F)F)n3nc(C(=O)Nc4ccc(Cl)c(C(F)(F)F)c4)cc3n2)cc1 5.23%
Cn1cc(S(=O)(=O)c2ccccc2)c(=O)c2cc(F)c(N3CCN(c4ccccc4)CC3)cc21 -9.31%
Cc1cccc(-n2c(-c3ccccc3)cn3c4c(=O)[nH]c(=O)n(C)c4nc23)c1 2.93%
Cc1cc(C)c(Cn2c3ccccc3c3cnn(CC(=O)N4CCCCCC4)c(=O)c32)c(C)c1 -8.12%
Cc1cccc(C)c1OCC(=O)Nc1nc(-c2ccc(Br)cc2)ns1 -8.89%
O=C(Cn1c(=O)n(-c2cccc(Cl)c2)c(=O)c2sc3ccccc3c21)N1CCCC1 -8.49%
CCOc1ccc(C(=O)Nc2c(C(=O)Nc3ccccc3F)oc3ccccc23)cc1OCC -1.53%
COC(=O)c1cc(C)nc2c1c(=O)nc(SCc1ccccc1F)n2C1CC1 -15%
CCOC(=O)CN1C(=O)C(O)(CC(=O)c2cc(OC)ccc2OC)c2ccccc21 (stereo not given) 0.0068%
CCN(CC)CCCNC(=O)C1CCN(S(=O)(=O)CC)CC1 -6.86%
O=S1(=O)c2ccccc2N(Cc2ccccc2)c2ccccc21 19.8%
CC(=O)c1ccc(NC(=O)c2c3c(nc4ccccc24)C(=O)N(C2CCCCC2)C3)cc1 33.5%
COc1cccc(Oc2nc3c(c(=O)n(Cc4ccccc4F)c(=O)n3C)n2C)c1 -6.63%
Cc1nnc(C(=O)NC(C)(C)c2nc(C(=O)NCc3ccc(F)cc3)c(O)c(=O)n2C)o1 -22.1%
CC(C)c1ccc(NC(=O)CN(C)S(=O)(=O)c2ccc3c(c2)c(=O)n(C)c(=O)n3C)cc1 -12.9%
CCn1c(=O)n(CC)c2cc(N3CCCCC3)c(NC(=O)Nc3ccccc3Cl)cc21 -23.9%
Cc1cccc(NS(=O)(=O)c2ccc3oc(=O)c4ncn(C)c4c3c2)c1C -16%
COc1cccc(N2CCN(C(=O)c3c(C)oc4ncnc(N5CCOCC5)c34)CC2)c1 -9.72%
Cc1c(C(=O)N(C)C)sc2c1c(=O)n(-c1ccc(Cl)c(Cl)c1)c(=O)n2CC(=O)Nc1cccc(C(F)(F)F)c1 -5.49%
CCOC(=O)Cc1ccc(NC(=O)NCc2ccc3c(c2)CCN3C(=O)CC)cc1 21.8%
O=C(CCS(=O)(=O)c1cc(Br)cc2c1N(C(=O)C1CC1)CC2)Nc1ccc(Br)cc1F 5.24%
CCc1ccccc1N(C)C(=O)Cn1cnc2sc(C)c(S(=O)(=O)N3CCN(c4ncccn4)CC3)c2c1=O -8.44%
COc1ccc(NC(=O)Cn2c(=O)oc3cc(S(=O)(=O)N4CCC(C)CC4)ccc32)c(OC)c1 20.5%
CCOc1ccccc1CNC(=O)CCn1ccc2cc(S(=O)(=O)N3CCC(C)CC3)ccc21 -26.7%
COC(=O)c1ccc(Cn2nnc3sc4c(c3c2=O)CCC(C)C4)cc1 (stereo not given) 13.3%
Cc1ccc(NS(=O)(=O)c2cc(Br)cc3c2N(C(=O)C2CC2)CC3)cc1C 31.3%
CCCS(=O)(=O)c1c(Nc2ccccc2C)sc(C(=O)c2ccccc2)c1N -50.5%
O=C(NC1CCCc2ccccc21)c1ccc2c(c1)sc1nc(-c3ccc(F)cc3)cn12 (stereo not given) -7.96%
CCOc1ccc(CCNC(=O)c2cc3c(=O)[nH]c4ccc(C)cc4c3s2)cc1OCC 4.94%
COc1ccc(-c2nc(SCC(=O)NCCc3ccc(OC)c(OC)c3)n[nH]2)cc1 -18%
COc1ccc2c(CNCCc3cccs3)c(C(=O)O)n(Cc3ccccc3)c2c1 47.4%
O=C(CCCN1C(=O)C(c2ccccc2)Oc2cccnc21)Nc1ccc(Br)cc1F (stereo not given) -3.41%
CCc1ccc2c(c1)NC(c1cccs1)=NC(c1ccc(F)cc1)=N2 -4.14%
O=Cc1ccc(O)c(O)c1O -6.64%
CC(=O)N(Cc1cccnc1)c1nc2c(C)c(C)ccc2s1 -16.3%
Cc1ccc(Cl)cc1NC(=O)C1CCC(CNS(=O)(=O)c2cccc3nsnc23)CC1 (stereo not given) -10.3%
Cc1ccc(N2CC(c3nc4ccccc4n3CCC3CCCCC3)CC2=O)cc1 (stereo not given) -4.83%
CCOc1ccc(C(CC(=O)O)N2Cc3ccccc3C2=O)cc1OC (stereo not given) -1.27%
COc1ccc(C2c3c(oc4ccc(F)cc4c3=O)C(=O)N2Cc2ccc3c(c2)OCO3)cc1 (stereo not given) -3.96%
COC(=O)c1ccccc1NC(=O)NCCc1c(C)nn(C)c1C 5.57%
Cc1cccc(N(C)C(=O)c2cc(S(=O)(=O)N3CCCC3)cn2C)c1 -20.4%
N#C/C(=C\c1ccccc1)c1nc(-c2cc3cc(Br)ccc3oc2=O)cs1 24.7%
O=C(NCCS(=O)(=O)N1CCN(c2ccccc2)CC1)C(c1ccccc1)c1ccccc1 -22.5%
O=C1CC(c2ccccc2)Cc2[nH]c(=O)c(C(=O)Nc3cccc(F)c3)cc21 (stereo not given) 5.29%
Cc1cccc(NC(=O)c2c(NC(=O)C(F)(F)F)sc3c2CCCCC3)c1 44.5%
O=C(Nc1ccccc1Br)C1CCCN(S(=O)(=O)c2cccc3nsnc23)C1 (stereo not given) 28.7%
COc1cccc(N2CCN(S(=O)(=O)c3ccc4[nH]c5c(c4c3)CCCC5)CC2)c1 1.1%
CCc1ccc(OCC(=O)N(Cc2ccc(Cl)cc2)C2CCS(=O)(=O)C2)cc1 (stereo not given) -4.73%
O=C(CSc1nc2c([nH]c3ccccc32)c(=O)n1-c1ccc(F)cc1)N1CCCCC1 -10.6%
CCOC(=O)c1oc2c(c1C)-c1nn(Cc3ccc(Cl)cc3)cc1CC2 -41.2%
Cn1c(NCCO)nc2c1c(=O)n(Cc1ccccc1Cl)c(=O)n2C -3.82%
CCC(C)NC(=O)Cn1c(=O)cc(-c2ccccc2)c2c(C)nn(C)c21 (stereo not given) 10.3%
CN1C2CCC1CC(OC(=O)c1c[nH]c3ccccc13)C2 (stereo not given) -6.21%
COc1ccccc1NC(=O)Cn1nnc(C(=O)NCc2ccc3c(c2)OCO3)c1N 42.4%
Cc1cccc(NC(=O)CCS(=O)(=O)c2ccc3c(c2)n(C)c(=O)c(=O)n3C)c1C 16%
Nc1nc(Nc2ccccc2F)sc1C(=O)c1ccc(Cl)cc1 -28.9%
CCc1cccc(NC(=O)C2CCN(C(=O)c3cnn(-c4ccccc4)c3-n3cccc3)CC2)c1 -3.99%
